# This list was built around the results that the source calls inconclusive (neither active nor inactive); the mix of calls is not that of the screen. For part of these data: Potencies of inconclusive entries are doubtful fits and often do not repeat. Calls of active or inactive are those of the source. Unless noted, calls follow the shape of the dose curve; as a rule, active = well fitted curve in the direction sought with a large enough effect in the repeat runs; inconclusive = weak or mixed curves; inactive = no such curve, though single readings can be large; an effect the other way counts as inactive or inconclusive.
# How the values were obtained:
# [1] = qHTS assay to identify small molecule agonists of the AP-1 signaling pathway - cell viability counter screen (AID 1159525; calls by dose curve; also: potency is read from the fitted curve at half-maximal effect; nearly all actives have a fitted effect of over 55% in size)
# In short: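 Each titration point was normalised to DMSO and tetra n-octyl ammonium bromide controls. The read was Cell Titer Glo luminescence after 30 min at RT, following 5 h compound exposure of ME-180 AP-1-bla cells at 37 °C.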
# [2] = molecular target: Retinoic acid receptor RXR-alpha (Homo sapiens) (UniProt P19793); assay: qHTS assay to identify small molecule agonists of the RXR signaling pathway (AID 1159527; calls by dose curve; also: nearly all actives have a fitted effect of over 35% in size; also: potency is read from the fitted curve at half-maximal effect); conditions: HEK293T RXRa-UAS-bla, beta-lactamase ratio, 16 h; activation: at 76.8 µM (top of the series) unless noted
# Sequence of UniProt P19793 (P19793 whole entry, looked up): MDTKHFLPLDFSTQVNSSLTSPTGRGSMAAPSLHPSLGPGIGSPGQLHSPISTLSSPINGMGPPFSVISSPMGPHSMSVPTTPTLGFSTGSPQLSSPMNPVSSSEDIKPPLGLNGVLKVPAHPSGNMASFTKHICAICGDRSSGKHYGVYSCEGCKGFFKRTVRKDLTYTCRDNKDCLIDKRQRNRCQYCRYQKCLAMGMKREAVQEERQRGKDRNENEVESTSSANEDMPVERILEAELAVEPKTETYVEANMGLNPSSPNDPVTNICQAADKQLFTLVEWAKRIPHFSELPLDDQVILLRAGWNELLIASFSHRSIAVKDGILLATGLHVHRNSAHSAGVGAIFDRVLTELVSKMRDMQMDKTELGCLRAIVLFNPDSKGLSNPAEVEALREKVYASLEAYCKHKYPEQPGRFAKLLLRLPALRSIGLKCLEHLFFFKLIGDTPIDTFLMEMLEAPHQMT
# In short: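 Fluorescence ratio readout (460 vs 530 nm) from GeneBLAzer RXR-alpha HEK 293T cells after 16 hr compound treatment; cells seeded 5 hr beforehand in low-serum, charcoal-stripped medium.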
# [3] = qHTS assay to identify small molecule agonists of H2AX (AID 1224845; active = well fitted activation curve with a large enough effect in the signal ratio in the repeat runs, not every such curve was filed as active; inconclusive = weak or mixed curves; the % refers to the signal ratio; also: potency is read from the fitted curve at half-maximal effect; as to activation (H2AX phosphorylation): % is scaled to controls: 0 for no effect and ±100 for the full control effect); conditions: CHO-K1 phospho-H2AX Ser139 HTRF, 3 h; activation (H2AX phosphorylation): at 154 µM (top of the series) unless noted
# In short: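 Wild-type CHO-K1 cells plated overnight, then exposed 3 hr at 37C to compounds at 15 concentrations (0.76% DMSO). Lysed, then HTRF anti-pH2AX(S139)-cryptate/anti-H2AX-d2 detection after 24 hr at room temperature; emissions 665 and 620 nm.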
# [4] = molecular target: Estrogen receptor beta (Homo sapiens) (UniProt Q92731); assay: qHTS assay to identify small molecule antagonists of the estrogen receptor beta (ER-beta) signaling pathway (AID 1259378; active = well fitted inhibition curve with a large enough effect in the signal ratio in the repeat runs, not every such curve was filed as active; inconclusive = weak or mixed curves, or effect the other way; inactive = no such curve, though single readings can be large or run the other way; the % refers to the signal ratio; also: potency is read from the fitted curve at half-maximal effect; as to activity, negative = inhibition: % is scaled to controls: 0 for no effect and ±100 for the full control effect); conditions: ER-beta-UAS-bla HEK293T, beta-lactamase FRET ratio, 16 h; activity, negative = inhibition: at 92.4 µM (top of the series) unless noted
# Sequence of UniProt Q92731 (Q92731 whole entry, looked up): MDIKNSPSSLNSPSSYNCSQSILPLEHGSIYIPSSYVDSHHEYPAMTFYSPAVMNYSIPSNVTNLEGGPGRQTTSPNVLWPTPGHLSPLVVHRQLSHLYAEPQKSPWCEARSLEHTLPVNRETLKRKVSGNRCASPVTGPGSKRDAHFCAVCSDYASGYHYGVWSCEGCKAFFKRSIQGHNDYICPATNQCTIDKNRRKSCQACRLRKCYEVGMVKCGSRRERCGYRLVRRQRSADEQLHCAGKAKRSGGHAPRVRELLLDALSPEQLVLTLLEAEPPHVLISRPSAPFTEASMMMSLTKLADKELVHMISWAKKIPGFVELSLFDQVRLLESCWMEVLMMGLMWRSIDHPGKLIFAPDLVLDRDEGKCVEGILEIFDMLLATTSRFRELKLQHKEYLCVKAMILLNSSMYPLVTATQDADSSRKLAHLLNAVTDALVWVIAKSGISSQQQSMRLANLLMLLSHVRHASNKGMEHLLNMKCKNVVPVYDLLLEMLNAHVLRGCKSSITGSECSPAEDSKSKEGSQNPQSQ
# In short: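 ER-beta-UAS-bla HEK293T (GripTite) cells in 2% charcoal-stripped FBS medium were preincubated 6 hr at 37C, dosed with compound, then stimulated with 1 nM E2 (final) for 16 hr; beta-lactamase reporter read by B/G FRET fluorescence after 2 hr substrate loading.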
# [5] = qHTS assay to identify small molecule agonists of the estrogen receptor beta (ER-beta) signaling pathway - cell viability counter screen (AID 1259380); also: potency is read from the fitted curve at half-maximal effect; nearly all actives have a fitted effect of over 30% in size
# In short: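 Cytotoxicity is measured in parallel with the reporter screen: after 16 hr compound exposure at 37C and a 2 hr LiveBLAzer step, CellTiter-Glo is added to the same ER-beta-UAS-bla HEK293T wells and luminescence read after 30 min.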
# [6] = molecular target: Progesterone receptor (Homo sapiens) (UniProt P06401); assay: qHTS assay to identify small molecule antagonists of the progesterone receptor (PR) signaling pathway (AID 1346795; active = well fitted inhibition curve with a large enough effect in the signal ratio in the repeat runs, not every such curve was filed as active; inconclusive = weak or mixed curves; the % refers to the signal ratio; also: potency is read from the fitted curve at half-maximal effect); conditions: PR-UAS-bla HEK293T, beta-lactamase FRET ratio, 16 h; activity change, negative = inhibition: at 92.4 µM (top of the series) unless noted
# Sequence of UniProt P06401 (P06401 whole entry, looked up): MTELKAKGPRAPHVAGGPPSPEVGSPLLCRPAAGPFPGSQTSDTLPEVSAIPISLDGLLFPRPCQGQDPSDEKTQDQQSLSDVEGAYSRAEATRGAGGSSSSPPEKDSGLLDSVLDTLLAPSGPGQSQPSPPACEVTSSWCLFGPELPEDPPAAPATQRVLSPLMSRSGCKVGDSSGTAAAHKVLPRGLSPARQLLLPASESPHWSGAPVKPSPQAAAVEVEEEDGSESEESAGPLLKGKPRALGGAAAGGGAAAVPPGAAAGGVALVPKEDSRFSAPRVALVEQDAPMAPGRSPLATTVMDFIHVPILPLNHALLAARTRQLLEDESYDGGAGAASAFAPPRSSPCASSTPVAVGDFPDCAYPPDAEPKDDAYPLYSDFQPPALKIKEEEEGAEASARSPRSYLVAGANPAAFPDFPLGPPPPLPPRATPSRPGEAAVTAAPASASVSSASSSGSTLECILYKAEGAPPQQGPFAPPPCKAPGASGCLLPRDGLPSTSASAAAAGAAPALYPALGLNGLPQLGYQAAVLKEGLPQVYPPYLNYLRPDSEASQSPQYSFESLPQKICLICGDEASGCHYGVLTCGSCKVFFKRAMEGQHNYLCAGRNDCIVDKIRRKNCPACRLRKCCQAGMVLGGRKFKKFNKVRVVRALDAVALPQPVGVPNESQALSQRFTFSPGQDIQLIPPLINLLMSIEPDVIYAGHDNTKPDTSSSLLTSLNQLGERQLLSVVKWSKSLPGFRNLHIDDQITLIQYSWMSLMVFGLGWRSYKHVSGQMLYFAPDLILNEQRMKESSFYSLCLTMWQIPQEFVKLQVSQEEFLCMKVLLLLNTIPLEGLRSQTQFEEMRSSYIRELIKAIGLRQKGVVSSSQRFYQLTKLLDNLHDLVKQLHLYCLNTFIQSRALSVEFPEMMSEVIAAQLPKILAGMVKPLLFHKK
# In short: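 Inhibition of R5020-induced (1 nM final) beta-lactamase reporter signal in PR-UAS-bla HEK293T cells was scored by FRET fluorescence after overnight (16 hr) compound treatment.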
# [7] = qHTS assay to identify small molecule antagonists of the progesterone receptor (PR) signaling pathway - cell viability counter screen (AID 1346798); also: nearly all actives have a fitted effect of over 50% in size; also: potency is read from the fitted curve at half-maximal effect
# In short: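 ATP content as viability readout: CellTiter-Glo luminescence, 30 min room temperature, in PR-UAS-bla HEK293T cells after 16 hr compound/R5020 treatment at 37C and 5% CO2.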
# [8] = qHTS assay to identify small molecule agonists of the progesterone receptor (PR) signaling pathway - cell viability counter screen (AID 1346799; calls by dose curve; also: potency is read from the fitted curve at half-maximal effect; nearly all actives have a fitted effect of over 45% in size)
# In short: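 Cytotoxicity in PR-bla HEK293T cells: 16 h compound, 37C; CellTiter-Glo added post-FRET read; luminescence after 30 min RT.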
# [9] = qHTS assay to identify small molecule antagonists of the sonic hedgehog signaling (Shh) pathway (AID 1259369; calls by dose curve; also: nearly all actives have a fitted effect of over 45% in size; also: potency is read from the fitted curve at half-maximal effect; as to activity change, negative = inhibition: % is scaled to controls: 0 for no effect and ±100 for the full control effect)
# In short: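 Cells are plated and held 4hr at 37 C, compounds (DMSO) are pinned in, conditioned medium is added to stimulate the pathway, and after 24hr luciferase reagent is added for 30min before luminescence is read.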
# [10] = molecular target: Cytochrome P450 2D6 (Homo sapiens) (UniProt P10635); assay: Cytochrome P450 Family 2 Subfamily D Member 6 (CYP2D6) small molecule antagonists: luciferase reporter qHTS assay (AID 1671196); also: potency is read from the fitted curve at half-maximal effect; nearly all actives have a fitted effect of over 50% in size
# Sequence of UniProt P10635 (P10635 whole entry, looked up): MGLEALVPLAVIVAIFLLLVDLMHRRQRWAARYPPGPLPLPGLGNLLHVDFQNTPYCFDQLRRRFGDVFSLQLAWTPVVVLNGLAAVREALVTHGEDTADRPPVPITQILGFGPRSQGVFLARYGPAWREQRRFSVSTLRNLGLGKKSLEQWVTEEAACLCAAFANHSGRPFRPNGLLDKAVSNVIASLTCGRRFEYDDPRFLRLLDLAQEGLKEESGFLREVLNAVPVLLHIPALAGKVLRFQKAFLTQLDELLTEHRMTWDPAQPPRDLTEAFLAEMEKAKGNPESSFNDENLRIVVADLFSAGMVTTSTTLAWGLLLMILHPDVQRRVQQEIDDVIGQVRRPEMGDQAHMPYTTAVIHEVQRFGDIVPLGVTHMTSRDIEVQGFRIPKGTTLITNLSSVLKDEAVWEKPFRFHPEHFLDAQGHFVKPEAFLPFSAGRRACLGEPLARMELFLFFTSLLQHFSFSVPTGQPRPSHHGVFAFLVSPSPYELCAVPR
# In short: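 Enzyme and proluciferin substrate were first combined with test chemical for 10 min at room temperature. Adding NADPH regeneration solution started a 1 h reaction, stopped with luciferin detection reagent and read by luminescence 20 min later.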
# [11] = qHTS assay to identify small molecule antagonists of the thyroid receptor (TR) signaling pathway - cell viability counter screen (AID 743064); conditions: GH3.TRE-Luc viability, CellTiter-Fluor, 24 h; activity change, negative = cytotoxic: at 70.3 µM (top of the series) unless noted; also: potency is read from the fitted curve at half-maximal effect; nearly all actives have a fitted effect of over 50% in size
# In short: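 Counter screen for cytotoxicity: compound plus T3 (1 nM final) on GH3.TRE-Luc cells, 23.5 h at 37 °C, then fluorescence viability readout with CellTiter-Fluor.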
# [12] = molecular target: Cytochrome P450 1A2 (Homo sapiens) (UniProt P05177); assay: Cytochrome P450 Family 1 Subfamily A Member 2 (CYP1A2) small molecule antagonists: luciferase reporter qHTS assay (AID 1671199); also: nearly all actives have a fitted effect of over 50% in size; also: potency is read from the fitted curve at half-maximal effect
# Sequence of UniProt P05177 (P05177 whole entry, looked up): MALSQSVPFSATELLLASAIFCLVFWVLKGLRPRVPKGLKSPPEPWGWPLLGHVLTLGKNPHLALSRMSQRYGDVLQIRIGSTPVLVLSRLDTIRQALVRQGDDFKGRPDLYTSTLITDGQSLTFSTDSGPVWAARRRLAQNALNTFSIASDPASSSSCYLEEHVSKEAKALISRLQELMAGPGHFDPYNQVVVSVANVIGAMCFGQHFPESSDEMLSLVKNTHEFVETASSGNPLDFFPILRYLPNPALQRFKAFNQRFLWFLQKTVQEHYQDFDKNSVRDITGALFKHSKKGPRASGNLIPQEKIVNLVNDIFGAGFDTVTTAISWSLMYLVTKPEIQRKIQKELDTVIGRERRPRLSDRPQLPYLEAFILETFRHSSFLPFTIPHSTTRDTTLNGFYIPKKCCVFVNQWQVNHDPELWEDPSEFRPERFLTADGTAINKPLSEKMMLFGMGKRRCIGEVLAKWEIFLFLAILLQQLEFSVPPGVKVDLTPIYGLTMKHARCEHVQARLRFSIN
# In short: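 Compounds were incubated with CYP1A2 and a luminogenic proluciferin substrate for 10 min at room temperature before the reaction was started with NADPH regeneration solution. After 1 h, detection reagent was added and light output, proportional to CYP activity, was recorded.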
# [13] = qHTS assay for small molecule agonists of the antioxidant response element (ARE) signaling pathway (AID 743202; active = well fitted activation curve with a large enough effect in the signal ratio in the repeat runs, not every such curve was filed as active; inconclusive = weak or mixed curves, or effect the other way; inactive = no such curve, though single readings can be large or run the other way; the % refers to the signal ratio; also: potency is read from the fitted curve at half-maximal effect); conditions: HepG2 ARE-bla reporter, beta-lactamase FRET, 16 h; activation: at 73.3 µM (top of the series) unless noted
# In short: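 Steps: seed ARE-bla HepG2 cells (2,000/well); incubate 5 h at 37 C; add compounds by pin tool; incubate 16 h at 37 C; add FRET substrate; read fluorescence after 2 h at RT.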
# [14] = molecular target: Cytochrome P450 2C9 (Homo sapiens) (UniProt P11712); assay: Cytochrome P450 Family 2 Subfamily C Member 9 (CYP2C9) small molecule antagonists: luciferase reporter qHTS assay (AID 1671198); also: nearly all actives have a fitted effect of over 50% in size; also: potency is read from the fitted curve at half-maximal effect
# Sequence of UniProt P11712 (P11712 whole entry, looked up): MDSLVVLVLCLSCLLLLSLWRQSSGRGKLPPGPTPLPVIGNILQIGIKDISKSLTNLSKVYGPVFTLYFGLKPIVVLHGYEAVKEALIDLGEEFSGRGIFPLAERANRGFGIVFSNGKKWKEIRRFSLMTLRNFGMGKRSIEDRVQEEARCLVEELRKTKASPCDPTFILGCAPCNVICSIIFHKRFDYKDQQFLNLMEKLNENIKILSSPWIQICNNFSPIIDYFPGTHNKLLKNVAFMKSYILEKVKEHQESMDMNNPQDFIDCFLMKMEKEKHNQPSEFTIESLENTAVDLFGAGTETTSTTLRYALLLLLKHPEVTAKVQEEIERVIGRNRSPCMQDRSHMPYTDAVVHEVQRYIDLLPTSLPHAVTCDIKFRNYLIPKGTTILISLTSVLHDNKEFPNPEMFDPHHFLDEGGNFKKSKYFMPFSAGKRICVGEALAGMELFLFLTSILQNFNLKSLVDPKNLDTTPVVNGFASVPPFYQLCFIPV
# In short: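 CYP2C9 activity was measured with a P450-Glo proluciferin substrate. Enzyme–substrate mix was held with compound for 10 min at room temperature, then NADPH regeneration solution was added for 1 h at 37C. Luciferin product was read as luminescence.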
# [15] = qHTS assay for small molecule disruptors of the mitochondrial membrane potential (AID 720635); conditions: HepG2 mitochondrial membrane potential, Mito-MPS dye ratio; ratio activity, negative = MMP loss: at 83.2 µM (top of the series) unless noted; also: potency is read from the fitted curve at half-maximal effect
# In short: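 HepG2 cells (2,000/well) attached overnight at 37C, then took compound for 1 hr at 37C, 5% CO2. Mito-MPS dye was added for 30 min; fluorescence was read at 490/535 nm (monomers) and 540/590 nm (aggregates).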
# [16] = qHTS assay for identifying genotoxic compounds that show differential cytotoxicity against isogenic chicken DT40 cell lines with known DNA damage response pathways - Rev3 mutant cell line (AID 743014); conditions: chicken DT40 Rev3-/- viability, CellTiter-Glo, 40 h; activity, negative = cytotoxicity: at 68.4 µM (top of the series); also: nearly all actives have a fitted effect of over 55% in size; also: potency is read from the fitted curve at half-maximal effect
# [17] = molecular target: Vitamin D3 receptor (Homo sapiens) (UniProt P11473); assay: qHTS assay to identify small molecule antagonists of the vitamin D receptor (VDR) signaling pathway (AID 743223; active = well fitted inhibition curve with a large enough effect in the signal ratio in the repeat runs, not every such curve was filed as active; inconclusive = weak or mixed curves, or effect the other way; inactive = no such curve, though single readings can be large or run the other way; the % refers to the signal ratio; also: potency is read from the fitted curve at half-maximal effect); conditions: VDR-UAS-bla HEK293T, beta-lactamase FRET ratio, 16 h; activity change, negative = inhibition: at 61 µM (top of the series) unless noted
# Sequence of UniProt P11473 (P11473 whole entry, looked up): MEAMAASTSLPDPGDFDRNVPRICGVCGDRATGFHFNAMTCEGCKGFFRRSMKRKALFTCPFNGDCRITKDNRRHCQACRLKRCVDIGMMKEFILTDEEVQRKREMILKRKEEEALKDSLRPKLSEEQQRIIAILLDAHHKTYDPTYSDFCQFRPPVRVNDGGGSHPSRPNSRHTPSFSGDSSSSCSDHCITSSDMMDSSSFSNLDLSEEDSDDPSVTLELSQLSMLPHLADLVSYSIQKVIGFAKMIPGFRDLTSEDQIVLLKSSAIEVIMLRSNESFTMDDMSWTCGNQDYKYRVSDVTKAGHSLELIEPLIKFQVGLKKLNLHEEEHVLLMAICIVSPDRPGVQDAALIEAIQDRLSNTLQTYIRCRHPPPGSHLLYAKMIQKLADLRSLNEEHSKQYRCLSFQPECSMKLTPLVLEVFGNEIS
# In short: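 Beta-lactamase activity in VDR-bla cells is measured by FRET substrate fluorescence (2 h, room temperature) after cells spend 16 h at 37C with test compound and 3 nM final 1alpha,25-dihydroxyvitamin D3.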
# [18] = qHTS assay to identify small molecule agonists of the AP-1 signaling pathway (AID 1159526; calls by dose curve; also: potency is read from the fitted curve at half-maximal effect); conditions: ME-180 (cervical carcinoma) AP-1-bla reporter, beta-lactamase FRET ratio, 5 h; activation: at 76.8 µM (top of the series) unless noted
# [19] = molecular target: Glucocorticoid receptor (Homo sapiens) (UniProt P04150); assay: qHTS assay to identify small molecule antagonists of the glucocorticoid receptor (GR) signaling pathway (AID 720692; active = well fitted inhibition curve with a large enough effect in the signal ratio in the repeat runs, not every such curve was filed as active; inconclusive = weak or mixed curves, or effect the other way; inactive = no such curve, though single readings can be large or run the other way; the % refers to the signal ratio; also: % is scaled to controls: 0 for no effect and ±100 for the full control effect); conditions: GR-bla HeLa, beta-lactamase FRET ratio, dexamethasone-stimulated, 18 h; activity change, negative = inhibition: at 58.5 µM (top of the series) unless noted
# Sequence of UniProt P04150 (P04150 whole entry, looked up): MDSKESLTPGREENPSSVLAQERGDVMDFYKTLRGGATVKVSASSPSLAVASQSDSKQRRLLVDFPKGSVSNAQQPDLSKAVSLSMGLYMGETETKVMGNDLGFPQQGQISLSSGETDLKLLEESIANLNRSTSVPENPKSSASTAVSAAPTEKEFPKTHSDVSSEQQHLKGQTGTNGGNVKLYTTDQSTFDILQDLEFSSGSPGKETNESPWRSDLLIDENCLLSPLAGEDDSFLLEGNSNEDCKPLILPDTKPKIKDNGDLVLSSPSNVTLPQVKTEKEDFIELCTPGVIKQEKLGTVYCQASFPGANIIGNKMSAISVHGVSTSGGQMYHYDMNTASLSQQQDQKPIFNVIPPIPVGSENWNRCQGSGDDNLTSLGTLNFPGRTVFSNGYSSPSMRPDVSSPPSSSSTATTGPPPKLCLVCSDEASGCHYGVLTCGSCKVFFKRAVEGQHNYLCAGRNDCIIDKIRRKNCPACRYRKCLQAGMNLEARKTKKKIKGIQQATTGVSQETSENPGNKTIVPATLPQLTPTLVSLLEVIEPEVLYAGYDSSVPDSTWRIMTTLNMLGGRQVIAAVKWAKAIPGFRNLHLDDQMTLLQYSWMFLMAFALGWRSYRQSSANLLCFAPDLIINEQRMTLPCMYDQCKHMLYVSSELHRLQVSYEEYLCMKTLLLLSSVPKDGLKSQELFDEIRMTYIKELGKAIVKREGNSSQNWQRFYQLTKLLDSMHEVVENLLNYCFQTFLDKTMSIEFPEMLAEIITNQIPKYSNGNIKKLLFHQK
# In short: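 Antagonism was scored as loss of dexamethasone-driven (5 nM final) reporter signal in HeLa cells bearing a glucocorticoid response element–beta-lactamase construct, after 18 h compound exposure at 37 C and 2 h FRET substrate loading.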
# Tags tell the direction and shape of the fitted curve or compound fluorescence and quenching.
smiles,measurement,setting,value
C[C@]12CC[C@H](O)C[C@H]1CC[C@@H]1[C@@H]2C[C@@H](O)[C@]2(C)[C@@H](C3=CC(=O)OC3)CC[C@]12O,Potency,[1],"inconclusive: 0.692 µM [cytotoxic, full curve]"
same,Potency,[2],"inconclusive: 2.45 µM [rising, full curve]"
same,Potency,[3],inactive
same,Potency,[4],"inconclusive: 0.433 µM [activator, full curve]"
same,Potency,[5],active: 1.09 µM
same,Potency,[6],"inconclusive: 7.7 µM [rising, full curve]"
same,Potency,[7],active: 1.72 µM
same,Potency,[8],active: 1.54 µM
NC(=O)c1ccc(N)nc1,Potency,[1],"inconclusive: 43.6 µM [cytotoxic, partial curve, poor fit]"
same,Potency,[2],inconclusive: 13.8 µM [activator]
same,Potency,[9],inactive
same,Potency,[4],inactive
same,Potency,[7],active: 17.2 µM
same,Potency,[8],active: 21.7 µM
CCOP(=S)(OCC)SCCS(=O)(=O)CC,Potency,[3],"inconclusive: 127 µM [rising, single point]"
same,Potency,[9],"inconclusive: 68.6 µM [inhibitor, single point]"
same,Potency,[4],"inconclusive: 77 µM [inhibitor, partial curve, poor fit]"
same,Potency,[10],active: 2.24 µM
C[N+]1(CCF)[C@@H]2CC[C@H]1CC(OC(=O)C(O)(c1ccccc1)c1ccccc1)C2 (stereo not given in full),Potency,[11],"inconclusive: 1.19 µM [rising, full curve, poor fit]"
same,Potency,[7],inactive
same,Potency,[12],inactive
CC[N+]1(CC)CCC(OC(=O)C(O)(c2ccccc2)c2ccccc2)C1 (stereo not given),Potency,[13],inactive
same,Potency,[6],inactive
same,Potency,[8],"inconclusive: 7.5 µM [cytotoxic, single point]"
same,Potency,[10],active: 8.71 µM
same,Potency,[14],inactive
same,Potency,[12],"inconclusive: 27.5 µM [inhibitor, partial curve]"
O=C(O)[C@H](O)[C@@H](O)C(=O)O,Potency,[13],inactive
same,activation,[2],inconclusive: 17.6%
CC1(C(=O)Nc2ccc(O)c(Cl)c2Cl)CCCCC1,Potency,[15],active: 7.7 µM
same,Potency,[16],active: 61.1 µM
same,Potency,[11],"inconclusive: 61.1 µM [cytotoxic, single point]"
same,Potency,[13],"inconclusive: 19.3 µM [rising, full curve]"
same,Potency,[17],"inconclusive: 0.0616 µM [activator, full curve, poor fit]"
same,Potency,[1],"inconclusive: 61.6 µM [cytotoxic, partial curve, poor fit]"
same,Potency,[18],"inconclusive: 54.9 µM [partial curve, poor fit]"
same,Potency,[9],"inconclusive: 24.3 µM [inhibitor, full curve]"
same,Potency,[4],"inconclusive: 24.3 µM [rising, single point]"
same,Potency,[6],active: 27.3 µM
same,Potency,[7],"inconclusive: 48.6 µM [rising, partial curve, poor fit]"
same,Potency,[8],"inconclusive: 68.6 µM [rising, single point]"
same,Potency,[14],active: 35.6 µM
same,Potency,[12],"inconclusive: 63.3 µM [inhibitor, partial curve]"
Cc1ccn2nc(S(=O)(=O)Nc3c(F)cccc3F)nc2n1,Potency,[15],inconclusive: 2.43 µM [single point]
same,Potency,[16],inactive
same,Potency,[11],"inconclusive: 24.3 µM [rising, partial curve]"
same,Potency,[13],inactive
same,Potency,[2],inactive
C[C@H]1[C@@H]2Cc3ccc(O)cc3[C@@]1(C)CCN2C,Potency,[15],inactive
same,Potency,[19],inactive
same,Potency,[16],"inconclusive: 82.3 µM [cytotoxic, partial curve]"
same,"activity change, negative = inhibition",[17],inconclusive: 26.2% [at 216 µM]
same,Potency,[9],"inconclusive: 3.28 µM [inhibitor, full curve]"
same,Potency,[7],"inconclusive: 73.3 µM [cytotoxic, partial curve, poor fit]"
c1cc[c]([Sb]([c]2ccccc2)[c]2ccccc2)cc1,Potency,[1],"inconclusive: 61.6 µM [cytotoxic, single point]"
same,Potency,[18],inconclusive: 54.9 µM
same,Potency,[2],"inconclusive: 8.71 µM [activator, full curve, poor fit]"
same,Potency,[3],"inconclusive: 127 µM [activator, single point]"
same,Potency,[5],"inconclusive: 68.6 µM [cytotoxic, single point]"
same,Potency,[6],"inconclusive: 4.86 µM [rising, full curve, poor fit]"
same,Potency,[7],"inconclusive: 77 µM [cytotoxic, partial curve, poor fit]"
same,Potency,[8],"inconclusive: 77 µM [cytotoxic, single point]"
same,Potency,[12],inactive
ClCc1cccc(Cl)c1,activation,[13],inconclusive: 30%
same,Potency,[1],"inconclusive: 0.239 µM [cytotoxic, single point]"
same,Potency,[18],inactive
same,Potency,[6],inactive
OC(Cc1ccccc1Cl)(Cn1cncn1)C1(Cl)CC1 (stereo not given),Potency,[2],inactive
same,Potency,[3],"inconclusive: 127 µM [rising, single point]"
same,Potency,[9],active: 12.2 µM
same,Potency,[4],"inconclusive: 27.3 µM [inhibitor, full curve]"
same,Potency,[6],"inconclusive: 9.69 µM [rising, full curve]"
same,Potency,[7],"inconclusive: 61.1 µM [rising, single point]"
same,Potency,[8],inconclusive: 54.5 µM
same,Potency,[10],"inconclusive: 35.6 µM [inhibitor, partial curve]"

# — PubChem BioAssay (Tox21)
